Laboratory results from the RNAGym collection of RNA variant scans (doi:10.7554/elife.90254).
The source gives no read counts; variants with many changes may rest on few reads.

B1: LINE1-mini (parent)
chain: GGCAGAGCUCAACACAGCGUGGCAAAGUGGCUGUGGCUAGACUGCC

Variants of: B1
Experiment: self-cleavage, relative activity (ratio to wild type); higher = more cleavage; in vitro, sequencing; the parent is a self-cleaving ribozyme

Variant	self-cleavage
GGCAAACCUCAUCACAGCGUGGCAAAGUGGCUGUGGCGAGACUGCC	0
GGCAAAUCUCAACACAGCGUGUCAAAGUGUCUGUGGCUAAACUGCC	1.91
GGCAAAGCUUAACACAGCUUGGCAAAGUGGCUGUGGCUAGACUGCC	0.06
GGCAAAGCUCAACACAGCGUUUCAAAGUGGCUGUGGCUAGACAGCC	0.21
GGCAAAGCUCAACACAGGGUGUGAAAGGGUCUGUGGCUAGAGUGCC	0.04
GGCAAAGCUCAACAUAGCGUGGCAAAGUGGCUGUGGCUGGACUGCC	0.02
GGCAAAGCUAAACACAGCGUGGCAAAGUGGCUGUGGCCAGACUGCA	0.04
GGCAAAGGUCAACACAGCGUGGCAAAGUGCCUGGGGCUAGACUGCC	0.04
GGCAAAGCUCAACAAAGUGUGGGAAAGUGGCUGUGGCUAGACUGCC	0.08
GGCAAAGCUCAACACAGAAUGGCCAAGUGGCUGUGGCUAGACUGUC	0.03
GGCAAAGCUCAACACAGCGUGUCAAAGUGGCCUUGGCUAGAUUGCC	0.03
GGCAAAGCUCAACACAGCGUGUCAAAGUGUCAAUGGCUAGACUGCC	0.06
GGCAAAGCUUAACACAGCGUGGCAAAGUGGCUGUCGCUAGACUGCC	0.02
GGCAAAGCUCAACACAACGUGGCAAAGUGGGUGUGGCUAGGCUGCC	0.02
GGCAAAGCUCAACACACCGUGGCAAAGUGGCAGUGGCUAGACUGCC	0.14
GGCAAACCUCAACACAGCGCGGCAAAGUGGUUGUGGCUAGACUGCC	0.01
GGCAAAGCUCAAAACAGCGUGGCGAAGUGUAUGUGGCUAGACUGCC	0.07
GGCAAAGCUCAACACAGCGUGGCAAACUGGCUGUAGAUAGACUGCC	0.09
GGCAAACAUCAACACACCGUGGCAAAGUGGUUGUGGCUAGACUGCC	0.22
GGCAAAGCUCAACACAGCGUUGCAAAGUGGCUGUGGCUAGAAUGCC	0.26
GGCAAAGCUCAACAAAGCGUGGCAAAGUGGCUGUGACUAGACUGCC	0.03
GGCAAAGCUCAACACAGCGUUGCAAAGUGGCGGUGGCUAGACUGCC	0.03
GGCAAAGCUCAAGACAGCGUGGCUAAGUGGCUGUGGCUAGACUGCC	0

Variant	self-cleavage
GGCAAAGCUAAACACAGCGCGGCAAAGUGGCUUUGGCUAGACUGCA	0.03
GGCAAAGCUCAACACAGCGUGGGUAAGUGGCUGUGGCAUGACCGCC	0.03
GGCAAAGCUCAACAGAGAGUGGCAAAGUGGCUGCGGCUAGACUGCC	0.02
GGCAAAGCUCAACACAGCAUGGCAAAAUGGCUGUUGCUACACUGCC	0.09
GGCAAAGCUAAAUACAGCGUGGCAAAGUGGCUUUGGCUAGACUGCC	0.05
GGCAAAGCUCAACACAGCGUGCCACAGUGGGUGGGGCUAGACUGCC	0.02
GGCAAAGCUCAACAUAGUGUUGCAAAGUGGGUGUAGCUAGACUGCC	0.01
GGCAAAGCUUAACUCAGCGUGGCAAAUUGGCUGUGGCUAGACUGCC	0.03
GGCAAAGCUCAACACAGCAUGGCAAAGUAGCUGUGGCUAGACUGCC	0.09
GGCAAAGCUCAACACAGGGUGACAAAGUGGCUGUGGCUACACUGCC	0.01
GGCAAAGUUCAACACAGCGUCGCGGAGUGGCUGUGGCUAGCCUGCC	0.19
GGCAAACCUCAACACAGCGUGGCAAAGUGGCUAUGGGUAGACUGCC	0.04
GGCAAAGCUCAACACAGAGUCGCAAAGUGGCUGUGGCCAGACUGCC	0.04
GGCAAAUCUCAACAUAGCGUGGCAAAGUGGCUGUGGCUAGACAGCC	0.44
GGCAAAGCUAAACACAGCGUGGCAAAGUGGCUGUGGCUAGACUGGC	0.01
GGCAAAGCUCAACACACCGUGCCAAAGUGGCCGGGGCUAGACGGCC	0.02
GGCAAAGCUCAACACAACGUGGCAAAGUGGCAGAAGCUAGACUGCC	0.05
GGCAAAGCUCAACACAGAGUGGUAAAGUGGCUAUGGCUAGACUGCC	0.03
GGCAAAGCUCAACACAGCGUGUCAAAGUGGCUGUGGCUAGACCGCC	0.17
GGCAAAGCUCAACACAGGGUGACAAACUGGCUGUGGCCAGACUGCC	0.17
GGCAAAACUCAAAACAGCGUAGCAAAGUGGCUGUGGCUAGACUGCC	0.74
GGCAAAGCUCAACACAACGUGGCAAAGUGGCUGUGGCUAGAAUGCC	0.04
GGCAAAGCUCAACAAAGCGGGGCAAAGUGGCUGUGGCUAGACUGCC	0.04

Variant	self-cleavage
GGCAAAGCUCAAGACGGCGUGGCAAAGUGGCUGCGGCUAGACAGCC	0.02
GGCAAAGCUCAACACAGAGUGGCAAAGUGGCGGUGGCUAGACUGCC	0.01
GGCAAAGCUCAAUACAUCGUGGCAAAGUGCCUGUAGCUAGACUGCC	0.04
GGCAAAGCUCAAGACGGCGUUGCAAAGUGUCUUUGGCUAGGCUGCC	0.01
GGCAAAGCUCAACAAUUCGUGGCAAAGUGGCUGCGGCUAGACUGCC	0.13
GGCAAAGCUCAACACAGCGUGGUAAAGUGGCUGUGGCCAGACUUCC	0.08
GGCAAAGCUGAACACAGCGUGGCAAAGUGGCUGUGGCUAUACUGCC	0
GGCAAAGCUAAACACAGCGUGGCAAAGUGGCUGUGGUUAGACUGCC	0.01
GGCAAAGCUCAACACAACGUGGCAAAGUGGCUGUGGCCAGAAUGUC	0
GGCAAAGCUAAACACAGUGUGGCAAAGUGGCUGUAGCUAGACUGCC	0.03
GGCAAAACUAAACACAGGGGUGCAAAGCGGCUGUGGCUAGACAGCC	0.01
GGCAAAGCUCAACACAGCGUGGCAAAUUGGCUGUGGAUAGACUGCC	0.65
GGCAAAGCUCAACACAGCAUGGCAAAGUGGCUGUGGCUAGACUGCA	0.05
GGCAAAGCUCAACACAGCGUGUCAAAGUGGCCGUGGCUAGACUGCC	0.09
GGCAAAGCUCAACACAACGUGGCAAAGUGGCUGUGGCUACACUGCC	0.03
GGCAAAGCUCAACACAGCGUGGCAAAGUGGCUGUGGAUUGACUGCC	0.06
GGCAAAGCUCAACACAGCUUGGCAAAGUGGCUGUGUCUAGACUGCC	0.03
GGCAAAGCUCAACACAGCGUGGCAAAAUGGCUAUGGCUAGACAUCC	0.04
GGCAAAGCUCAACAAAGCAUGGCAAAGUGGCUGUGGCGAGACAGAC	0
GGCAAAACUCAAAACAGCGUGGAAAAGUGGCUGUGGCUAGAGUGCC	0.11
GGCAAAGCUCAACAAAGCGUGGCAAAGUGGCUGUGGCUACACUGCC	0.04
GGCAAAGCUCAACACAGAAUGGCAAAGUGGCUGUGGCUAGACCGCC	0.02
GGCAAAGCUCAACACAUCGAGGCAAAGUGGAUGUGGCUAGAAUGCC	0.08

Variant	self-cleavage
GGCAAAGCUCAACACAGCGUGACAAAGUGGAUGUGGCUAGACUGCC	0.1
GGCAAAGCUCAACAAAGGGUGGCAAAGUGGCUGUGGCUAGACUGCC	0.04
GGCAAAGUUCAACAUAACGUGGCAAAGUGGCUGUGGCUAGACUGCC	0.55
GGCAAAGCUCAACACAGUGUUGCAAAGUGGCUGUGGCUAGACUGCA	0.05
GGCAAAGCUCAACACAGUGUGGCAAAGUGGCUGUAGCUAGACUGCC	0.29
GGCAAAGCUCAAAACAGCGGGGCAAAGUGGCUGUGGCUAGACUGCC	0.08
GGCAAAGCUCAACAGAGCGUGGCAAAGUGGCGGUGGCUAGACUGCC	0.02
GGCAAAGCUCAACACAGCAUGGCAAUGUGGCUGUGGCUAGACUGCC	0.08
GGCAAACCACAAUACAGCGUGGCAAUGUGGCUGUGGCUAGCAUGCC	0.23
GGCAAAGCUUAACACAGCGCGGCAAAGUGGCUGUGGCUAGACUGCC	0.01
GGCAAAGCUCAACACAGCGUCGCAAAGUGGCUGUGGAUAGACUGCC	0.13
GGCAAAGCUCAACACAGCGUGUCAAAGUGGCUGUUGCUAGACUGCC	0.22
GGCAAAGCUCAACACAGCGUCGCAAAAUGGCUGUGGCUAGACUGCC	0.07
GGCAAAGCUCAACACAGCGUAGUAAAGUGGAUGUGGCUAGACUGCC	0.1
GGCAAAGCUCAACACAGCAUGGCAAAGUGGCUGUGGAUAGAAUGCG	0.11
GGCAAAGCUAAAAACAGCGUGGCAACGUGGCUGUGGCUAGACUGCC	0.01
GGCAAAGCUAAGCACAGCGUGGUAAAGUGGCUGUGGCUAGAGUGCC	0
GGCAAAGCUCAACAUAGCGUGACAAAGUGGCUGUGGCUAGGCUGGC	0.09
GGCAAAGCUCAACACAGUGGGGCAAACUUGCUGUGGCUAGACUGGC	0.25
GGCAAAGCUCAACACAGCCUGGCAAAGUGACUGUGGGUAGACUGCC	0
GGCAAAGCUCAAUACAGUGUGGCAAAGUGGCUGUGGCGAGACUCCC	0.01
GGCAAAGCUCAAGAUAGAGUGGCAAAGUGGAUGUGGCAAGACUGCC	0.03
GGCAAAACUCAACACAGAGUGGCAAAGUGGCUGUGGCUAGACUGCC	0.52

Variant	self-cleavage
GGCAAAGCUUAGCUCAGCGUGGCAAAGCGGCUUUGGCUAGACUGCC	0.02
GGCAAAGCUCAACAUAGCGUGGCGCAGUGGCUGUGUCUAGACUGCC	0.05
GGCAAAGCUCAACACAGCGUGUCAAAGUGGCUGUGCCUAGACUGCC	0.02
GGCAAAGCUCAAUACAGCGUGGAAAAGUGGCUGUCGCUAGACUGCC	0.04
GGCAAAUAUCAACACAGCGUGGCAAAGCGGCUGUGGCUAGACUUCC	1.92
GGCAAAGCUCAAGACAGCGUGGCAAAGUGGCUGUGGAAAGACUGCC	0.1
GGCAAAUCUCAUCACAGCAUGGCAAACUGGCGGUGGCUAGACUGCC	0.06
GGCAAAGCUAAACACAGCGUUGCAAAGUGGCUGUGGCUAGACUGCC	0.03
GGCAAAGCUCAACACAACGUGGGAAAGUGGCUGUGUCUAGACUGCC	0.04
GGCAAAGCUCAACAGAGCGUGACAAAGUGGCUGUGGCUAGACUGCC	0.06
GGCAAAGCUCAAAACAGUGUGGCUAAGUGGCUGUGGCUAGACUGCC	0.04
GGCAAAGCUCAACACAGCGUAGCAAAUUGGCAGUGGCUAGACUGCC	0.49
GGCAAAGCUCAACACAACGCGGCAAAGUGGCUGUGGCUAUACUGCC	0.05
GGCAAAGCUAAACACAGCCUGGCAAAGUGGCUGUGGCUAGAUUGCC	0.03
GGCAAAGCUCAACACAUCGUGGCAAAGUGGCUGUGGCUAGAUUGCC	0.1
GGCAAAACUCAACACAGCGUGGCAAAGUGGCUUUGGCUAGACUGCC	0.05
GGCAAAGCUCAACACAGCGUGGUUAAGUGGCUGUGACUAGACUGAC	0.29
GGCAAAGCUUAACACAGUCUGGCAAAGUGGCCGUGGCUAGAAUGCC	0.04
GGCAAAGCUCAACACAGCGUGACAAAUUGGCUGUGGCUAGACUGCC	0.18
GGCAAAGCUAAACACAGCGUGGCAAACUUGCUGUCGCUAGACUCCC	0
